According to PubChem BioAssay (NCI):
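Compound exposure: 48 hours, 5 concentrations, 96-well plates. The concentration for 50% growth inhibition is given as GI50. At the TGI there is no net growth.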

Test system: NCI-H322M lung
Test: growth of human tumour cells (NCI), 48 h

| SMILES | GI50 | TGI |
| --- | --- | --- |
| Cn1cc(-c2cc(N)n3nc(-c4cn(C)c5ncccc45)cc3n2)c2cccnc21 | 14.4 µM | 27.5 µM |
| Cc1cc2c(cc1Cl)C(=O)/C(=C/c1ccccc1)O2 | 60.6 µM | > 100 µM |
